Measured values: the RNAGym collection of RNA variant scans (doi:10.1073/pnas.2313332121)
Variants at the background level are over-represented here.

B1: TPR 5TU (parent)
chain: GGAUCUUCUCGAUCUAACAAAAAAGACAAAUCUGCCACAAAGCUUGAGAGCAUCUUCGGAUGCAGAGGCGGCAGCCUUCGGUGGCGCGAUAGCGCCAACGUUCUCAACUAUGACACGCAAAACGCGUGCUCCGUUGAAUGGAGUUUAUCAUG

Variants of: B1
Assay: polymerase ribozyme fitness, log enrichment relative to wild type (log ratio); higher = more active; in vitro selection for triplet polymerase activity
Outline: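 Input and output libraries were sequenced on Illumina after a single in vitro selection round, run in triplicate on PCR-built, transcribed mutant libraries of each subunit of a heterodimeric triplet polymerase ribozyme. Selection annealed libraries to a biotinylated primer, the partner subunit and triplets, incubated them frozen at −7 °C, then gel-excised extended constructs for streptavidin-bead capture and RT-PCR. Genotypes with ≥10 input reads and ≥1 read per output were kept. Fitness is the logarithm, taken in base 2, of genotype enrichment divided by wild-type enrichment, using inverse-variance-weighted replicate averages.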
With GGAUCUUCUCGAUCUAACAAAAAAGACAAAUCUGCCACAAAGCUUGAGAGCAUCUUCGGAUGCAGAGGCGGCAGCCUUCGGUGGCGCGAUAGCGCCAACGUUCUCAACUAUGACACGCAAACCGCAUGCUCCGUUGAAUGGAGUUUAUCAUG the “polymerase ribozyme fitness (log ratio)” value was -0.186. In the case of GGAUCUUCUCGAUCUAACAAAAAAGACAAAUCUGCCACAAAGCUUGAGAGCAUCUUCGGAUGCAGAGGCGGCAGCCUUCGGUGGCGCGAUAGCGCCAACGUUCUCAACUAUGACACGCAAAGCGCGAACUCCGUUGAAUGGAGUUUAUCAUG, the “polymerase ribozyme fitness (log ratio)” value is reported as -4.01. With GGAUCUUCUCGAUCUAACAAAAAAGACAAAUCUGCCACAAAGCUUGAGAGCAUCUUCGGAUGCAGAGGCGGCAGCCUUCGGUGGCGCGAUAGCGCCAACGUUCUCAACUAUGACACGCAAAGCGCGUGCUCCGUUGAAUGGAGGUUAUCAUG the “polymerase ribozyme fitness (log ratio)” value was 0.851. For GGAUCUUCUCGAUCUAACAAAAAAGACAAAUCUGCCACAAAGCUUGAGAGCAUCUUCGGAUGCAGAGGCGGCAGCCUUCGGUGGCGCGAUAGCGCCAACGUUCUCAACUAUGACACGCAAAAUACGUGCUCCGUUGAAUGGAGCUUAUCAUG, the “polymerase ribozyme fitness (log ratio)” value was 0.0575. For GGAUCUUCUCGAUCUAACAAAAAAGACAAAUCUGCCACAAAGCUUGAGAGCAUCUUCGGAUGCAGAGGCGGCAGCCUUCGGUGGCGCGAUAGCGCCAACGUUCUCAACUAUGACACGCAAAACACGUGCUCCGUUGGAUGGAGUUUAUCAUG, the “polymerase ribozyme fitness (log ratio)” value was -1.05. With GGAUCUUCUCGAUCUAACAAAAAAGACAAAUCUGCCACAAAGCUUGAGAGCAUCUUCGGAUGCAGAGGCGGCAGCCUUCGGUGGCGCGAUAGCGCCAACGUUCUCAACUAUGACACGCAAAACUCGUGCUCCGUUGAAUGGCGUUUAUCAUG the “polymerase ribozyme fitness (log ratio)” value was -1.75. With GGAUCUUCUCGAUCUAACAAAAAAGACAAAUCUGCCACAAAGCUUGAGAGCAUCUUCGGAUGCAGAGGCGGCAGCCUUCGGUGGCGCGAUAGCGCCAACGUUCUCAACUAUGACACGCAAAACGGGUACUCCGUUGAAUGGAGUUUAACAUG the “polymerase ribozyme fitness (log ratio)” value was ≤ -4.2. For GGAUCUUCUCGAUCUAACAAAAAAGACAAAUCUGCCACAAAGCUUGAGAGCAUCUUCGGAUGCAGAGGCGGCAGCCUUCGGUGGCGCGAUAGCGCCAACGUUCUCAACUAUGACACGCAAAACGUGUGCUCCGUUGAAUGCAGUUUAUCAUG, the “polymerase ribozyme fitness (log ratio)” value was -3.85. In the case of GGAUCUUCUCGAUCUAACAAAAAAGACAAAUCUGCCACAAAGCUUGAGAGCAUCUUCGGAUGCAGAGGCGGCAGCCUUCGGUGGCGCGAUAGCGCCAACGUUCUCAACUAUGACACGCAAAACGCAUGCUCCGUUGAAUGGAGUUUAUCGUG, the “polymerase ribozyme fitness (log ratio)” value is reported as -2.66. For GGAUCUUCUCGAUCUAACAAAAAAGACAAAUCUGCCACAAAGCUUGAGAGCAUCUUCGGAUGCAGAGGCGGCAGCCUUCGGUGGCGCGAUAGCGCCAACGUUCUCAACUAUGACACGCAAAACGCAUGCUCGGUUGAAUGGAGUUUAUCAUG, the “polymerase ribozyme fitness (log ratio)” value was -2.68. For GGAUCUUCUCGAUCUAACAAAAAAGACAAAUCUGCCACAAAGCUUGAGAGCAUCUUCGGAUGCAGAGGCGGCAGCCUUCGGUGGCGCGAUAGCGCCAACGUUCUCAACUAUGACACGCAAAACGCUUGCUCCGUUGAAUGGAGUUUAUCAUU, the “polymerase ribozyme fitness (log ratio)” value was -2.47. For GGAUCUUCUCGAUCUAACAAAAAAGACAAAUCUGCCACAAAGCUUGAGAGCAUCUUCGGAUGCAGAGGCGGCAGCCUUCGGUGGCGCGAUAGCGCCAACGUUCUCAACUAUGACACGCAAAACGCGUUCUCCGUUGUAUGGAGUUUAUCAUG, the “polymerase ribozyme fitness (log ratio)” value was -3.34. With GGAUCUUCUCGAUCUAACAAAAAAGACAAAUCUGCCACAAAGCUUGAGAGCAUCUUCGGAUGCAGAGGCGGCAGCCUUCGGUGGCGCGAUAGCGCCAACGUUCUCAACUAUGACACGCAAAACGCGUGAUCCGUUGAAUGGAGUUUAUCAUG the “polymerase ribozyme fitness (log ratio)” value was -2.46. With GGAUCUUCUCGAUCUAACAAAAAAGACAAAUCUGCCACAAAGCUUGAGAGCAUCUUCGGAUGCAGAGGCGGCAGCCUUCGGUGGCGCGAUAGCGCCAACGUUCUCAACUAUGACACGCAAAACGCGUGAUCCGUUGAAUGGAGUUUAGCAUG the “polymerase ribozyme fitness (log ratio)” value was -4.11. In the case of GGAUCUUCUCGAUCUAACAAAAAAGACAAAUCUGCCACAAAGCUUGAGAGCAUCUUCGGAUGCAGAGGCGGCAGCCUUCGGUGGCGCGAUAGCGCCAACGUUCUCAACUAUGACACGCAAAACGCGUGGUCCGUUGAAUGGAGUUUAUCAUG, the “polymerase ribozyme fitness (log ratio)” value is reported as -2.45. For GGAUCUUCUCGAUCUAACAAAAAAGACAAAUCUGCCACAAAGCUUGAGAGCAUCUUCGGAUGCAGAGGCGGCAGCCUUCGGUGGCGCGAUAGCGCCAACGUUCUCAACUAUGACACGCAAAACGCGUGGGCCAUUGAAUGGAGUUUAUCAUG, the “polymerase ribozyme fitness (log ratio)” value was ≤ -4.2. With GGAUCUUCUCGAUCUAACAAAAAAGACAAAUCUGCCACAAAGCUUGAGAGCAUCUUCGGAUGCAGAGGCGGCAGCCUUCGGUGGCGCGAUAGCGCCAACGUUCUCAACUAUGACACGCAAAACGCGUGUUCCGUUGAAUGGAGUUUAUCAUG the “polymerase ribozyme fitness (log ratio)” value was -0.0537. For GGAUCUUCUCGAUCUAACAAAAAAGACAAAUCUGCCACAAAGCUUGAGAGCAUCUUCGGAUGCAGAGGCGGCAGCCUUCGGUGGCGCGAUAGCGCCAACGUUCUCAACUAUGACACGCAAAACGCGUGCUGCCUUUAAUGUAGUUUAUCAUG, the “polymerase ribozyme fitness (log ratio)” value was -3.43. With GGAUCUUCUCGAUCUAACAAAAAAGACAAAUCUGCCACAAAGCUUGAGAGCAUCUUCGGAUGCAGAGGCGGCAGCCUUCGGUGGCGCGAUAGCGCCAACGUUCUCAACUAUGACACGCAAAACGCGUGCUUCGUUGAAUGGAGGUUAUCAUG the “polymerase ribozyme fitness (log ratio)” value was -0.864. With GGAUCUUCUCGAUCUAACAAAAAAGACAAAUCUGCCACAAAGCUUGAGAGCAUCUUCGGAUGCAGAGGCGGCAGCCUUCGGUGGCGCGAUAGCGCCAACGUUCUCAACUAUGACACGCAAAACGCGUGCUCCAUUGAAUGUAGUUUAUCAUG the “polymerase ribozyme fitness (log ratio)” value was -3.08. In the case of GGAUCUUCUCGAUCUAACAAAAAAGACAAAUCUGCCACAAAGCUUGAGAGCAUCUUCGGAUGCAGAGGCGGCAGCCUUCGGUGGCGCGAUAGCGCCAACGUUCUCAACUAUGACACGCAAAACGCGUGCUCCCUUGAACGGAGUUUAUCAUG, the “polymerase ribozyme fitness (log ratio)” value is reported as ≤ -4.2. For GGAUCUUCUCGAUCUAACAAAAAAGACAAAUCUGCCACAAAGCUUGAGAGCAUCUUCGGAUGCAGAGGCGGCAGCCUUCGGUGGCGCGAUAGCGCCAACGUUCUCAACUAUGACACGCAAAACGCGUGCUCCGAUGGAUGGAGUUUAUCAUG, the “polymerase ribozyme fitness (log ratio)” value was -3.22. For GGAUCUUCUCGAUCUAACAAAAAAGACAAAUCUGCCACAAAGCUUGAGAGCAUCUUCGGAUGCAGAGGCGGCAGCCUUCGGUGGCGCGAUAGCGCCAACGUUCUCAACUAUGACACGCAAAACGCGUGCUCCGAUGAAUGGGGUUUAUCAUG, the “polymerase ribozyme fitness (log ratio)” value was -3.04. For GGAUCUUCUCGAUCUAACAAAAAAGACAAAUCUGCCACAAAGCUUGAGAGCAUCUUCGGAUGCAGAGGCGGCAGCCUUCGGUGGCGCGAUAGCGCCAACGUUCUCAACUAUGACACGCAAAACGCGUGCUCCGUAGAAUGGAGUUUAUUAUG, the “polymerase ribozyme fitness (log ratio)” value was -0.66. With GGAUCUUCUCGAUCUAACAAAAAAGACAAAUCUGCCACAAAGCUUGAGAGCAUCUUCGGAUGCAGAGGCGGCAGCCUUCGGUGGCGCGAUAGCGCCAACGUUCUCAACUAUGACACGCAAAACGCGUGCUCCGUGGAAUGGAGGUUAUCAUG the “polymerase ribozyme fitness (log ratio)” value was -2.41. In the case of GGAUCUUCUCGAUCUAACAAAAAAGACAAAUCUGCCACAAAGCUUGAGAGCAUCUUCGGAUGCAGAGGCGGCAGCCUUCGGUGGCGCGAUAGCGCCAACGUUCUCAACUAUGACACGCAAAACGCGUGCUCCGUGGAAUGGAGUUGAUCAUG, the “polymerase ribozyme fitness (log ratio)” value is reported as ≤ -4.2. For GGAUCUUCUCGAUCUAACAAAAAAGACAAAUCUGCCACAAAGCUUGAGAGCAUCUUCGGAUGCAGAGGCGGCAGCCUUCGGUGGCGCGAUAGCGCCAACGUUCUCAACUAUGACACGCAAAACGCGUGCUCCGUUAAAUGGAGUUUGUCAUG, the “polymerase ribozyme fitness (log ratio)” value was -1.36. With GGAUCUUCUCGAUCUAACAAAAAAGACAAAUCUGCCACAAAGCUUGAGAGCAUCUUCGGAUGCAGAGGCGGCAGCCUUCGGUGGCGCGAUAGCGCCAACGUUCUCAACUAUGACACGCAAAACGCGUGCUCCGUUGUAUGUAGUUUAUCAUG the “polymerase ribozyme fitness (log ratio)” value was -3.93. In the case of GGAUCUUCUCGAUCUAACAAAAAAGACAAAUCUGCCACAAAGCUUGAGAGCAUCUUCGGAUGCAGAGGCGGCAGCCUUCGGUGGCGCGAUAGCGCCAACGUUCUCAACUAUGACACGCAAAACGCGUGCUCCGUUGAACGGAGUUUAUGAUG, the “polymerase ribozyme fitness (log ratio)” value is reported as ≤ -4.2. In the case of GGAUCUUCUCGAUCUAACAAAAAAGACAAAUCUGCCACAAAGCUUGAGAGCAUCUUCGGAUGCAGAGGCGGCAGCCUUCGGUGGCGCGAUAGCGCCAACGUUCUCAACUAUGACACGCAAAACGCGUGCUCCGUUGAAUAGAUUUUAUCAUG, the “polymerase ribozyme fitness (log ratio)” value is reported as ≤ -4.2. With GGAUCUUCUCGAUCUAACAAAAAAGACAAAUCUGCCACAAAGCUUGAGAGCAUCUUCGGAUGCAGAGGCGGCAGCCUUCGGUGGCGCGAUAGCGCCAACGUUCUCAACUAUGACACGCAAAACGCGUGCUCCGUUGAAUUGAGUUCAUCAUG the “polymerase ribozyme fitness (log ratio)” value was -3.33. With GGAUCUUCUCGAUCUAACAAAAAAGACAAAUCUGCCACAAAGCUUGAGAGCAUCUUCGGAUGCAGAGGCGGCAGCCUUCGGUGGCGCGAUAGCGCCAACGUUCUCAACUAUGACACGCAAAACGCGUGCUCCGUUGAAUGAAGCUUAUCAUG the “polymerase ribozyme fitness (log ratio)” value was -3.08. With GGAUCUUCUCGAUCUAACAAAAAAGACAAAUCUGCCACAAAGCUUGAGAGCAUCUUCGGAUGCAGAGGCGGCAGCCUUCGGUGGCGCGAUAGCGCCAACGUUCUCAACUAUGACACGCAAAACGCGUGCUCCGUUGAAUGCAGAUUAUCACG the “polymerase ribozyme fitness (log ratio)” value was ≤ -4.2. With GGAUCUUCUCGAUCUAACAAAAAAGACAAAUCUGCCACAAAGCUUGAGAGCAUCUUCGGAUGCAGAGGCGGCAGCCUUCGGUGGCGCGAUAGCGCCAACGUUCUCAACUAUGACACGCAAAACGCGUGCUCCGUUGAAUGGCGAUUAGCAUG the “polymerase ribozyme fitness (log ratio)” value was ≤ -4.2. In the case of GGAUCUUCUCGAUCUAACAAAAAAGACAAAUCUGCCACAAAGCUUGAGAGCAUCUUCGGAUGCAGAGGCGGCAGCCUUCGGUGGCGCGAUAGCGCCAACGUUCUCAACUAUGACACGCAAAACGCGUGCUCCGUUGAAUGGAGCUUAUCCUG, the “polymerase ribozyme fitness (log ratio)” value is reported as -4.19. For GGAUCUUCUCGAUCUAACAAAAAAGACAAAUCUGCCACAAAGCUUGAGAGCAUCUUCGGAUGCAGAGGCGGCAGCCUUCGGUGGCGCGAUAGCGCCAACGUUCUCAACUAUGACACGCAAAACGCGUGCUCCGUUGAAUGGAGUUUAUAAUG, the “polymerase ribozyme fitness (log ratio)” value was -3.33. For GGAUCUUCUCGAUCUAACAAAAAAGACAAAUCUGCCACAAAGCUUGAGAGCAUCUUCGGAUGCAGAGGCGGCAGCCUUCGGUGGCGCGAUAGCGCCAACGUUCUCAACUAUGACACGCAAAACGCGUGCUCCGUUGAAUGGAGUUUAUGAUG, the “polymerase ribozyme fitness (log ratio)” value was -2.78. In the case of GGAUCUUCUCGAUCUAACAAAAAAGACAAAUCUGCCACAAAGCUUGAGAGCAUCUUCGGAUGCAGAGGCGGCAGCCUUCGGUGGCGCGAUAGCGCCAACGUUCUCAACUAUGACACGCAAAACGCGUGCUCCGUUGAAUGGAGUUUAUUAUG, the “polymerase ribozyme fitness (log ratio)” value is reported as -0.847.
